According to PubChem BioAssay AID2675 (National Center for Advancing Translational Sciences (NCATS), 2010):
The campaign covered roughly 280,000 compounds. About 100 (0.036%) were called active. Inconclusive results, whose numbers are uncertain, are shown with a selection of clear calls. The call rests on the fitted dose curve; in most records, active means well fitted inhibition curve with a large enough effect in the signal ratio, with a control signal flat (not every such curve was filed as active); inconclusive means small, poorly fitted or top-dose-only effect, or effect the other way, or a change in a side signal; inactive means no such curve, though single readings can be large or run the other way; the % refers to the signal ratio. Where the call is inconclusive, the potency comes from a doubtful curve fit. A note “side channel” means that the fit belongs to a control or component signal, not to the main read-out.

Target: Muscleblind-like protein 1 (Homo sapiens) (UniProt Q9NR56)
Assay: qHTS Assay for Inhibitors of MBNL1-poly(CUG) RNA binding
Conditions: TR-FRET MBNL1-His/biotin-(CUG)12 binding, 665/545 ratio; activity change, negative = inhibition: at 57.5 µM (top of the series)
Procedure, shortened: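 His-tagged MBNL1 binding to biotinylated (CUG)12 RNA was measured by TR-FRET using terbium anti-His antibody (0.055 ng/ul final) and streptavidin-XL665 (5 nM final). Compounds were titrated 92 nM to 58 uM; 60 min at room temperature.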
On the % scale 0 is the no-effect control and ±100 the full control effect; potency means the concentration at half of the fitted maximal effect; tags describe the fitted curve by direction and shape or compound fluorescence and quenching.

Chain of UniProt Q9NR56 (Q9NR56 whole entry, looked up): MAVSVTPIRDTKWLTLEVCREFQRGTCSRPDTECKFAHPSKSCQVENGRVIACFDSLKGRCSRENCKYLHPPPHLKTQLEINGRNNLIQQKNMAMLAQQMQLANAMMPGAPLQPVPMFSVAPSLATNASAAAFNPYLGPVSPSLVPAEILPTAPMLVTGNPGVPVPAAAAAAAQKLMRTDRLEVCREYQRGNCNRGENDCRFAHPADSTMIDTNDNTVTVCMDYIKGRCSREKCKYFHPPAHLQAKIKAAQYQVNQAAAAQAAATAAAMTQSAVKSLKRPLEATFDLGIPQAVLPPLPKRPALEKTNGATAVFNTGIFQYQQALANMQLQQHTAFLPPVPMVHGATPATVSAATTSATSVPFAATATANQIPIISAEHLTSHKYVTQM

| Compound | Potency | activity change, negative = inhibition |
| --- | --- | --- |
| O=C1N=C(N2CCCCC2)S/C1=C/C1=Cc2ccccc2OC1 | inconclusive: 14.1 µM [quencher, side channel, partial curve] |  |
| Cc1nc(C(F)(F)F)c(C(=O)O)cc1-c1nc(-c2ccccc2)cs1 | inconclusive: 2.82 µM [quencher, full curve] |  |
| Cc1nnc(SCCC(=O)Nc2nc(-c3ccccc3)ns2)s1 |  | inactive: 3.98% |
| C/C(=N\Nc1cccc(C(=O)O)c1)c1cc2ccccc2o1 | inconclusive: 44.7 µM [quencher, side channel, partial curve, poor fit] |  |
| CC(=O)Nc1cccc(NC(=O)c2sc3ncn(CC(=O)N4CCCCC4)c(=O)c3c2C)c1 | inconclusive: 31.6 µM [quencher, side channel, single point] |  |
| NNC(=O)c1cccc(S(=O)(=O)Nc2cc(Cl)ccc2Cl)c1 |  | inactive: -10.5% |
| COc1ccc(C(=O)N2CCCC2(C#N)c2ccccc2)cc1[N+](=O)[O-] (configuration not stated) | inconclusive: 14.1 µM [quencher, side channel, partial curve] |  |
| CNc1nc(OC)nc(N(C#N)CN2C(=O)c3ccccc3S2(=O)=O)n1 |  | inactive: -7.81% |
| Cc1ccc(C(=O)N/C(=C\c2cccnc2)c2nc3ccccc3[nH]2)cc1 | inconclusive: 39.8 µM [quencher, side channel, single point] |  |
| S=c1[nH]nc(COc2ccccc2)n1/N=C/c1ccc(Cl)cc1 |  | inactive: -5.34% |
| COc1ccc(C(=S)N2CCOCC2)cc1OC(=O)c1cc(OC)c(OC)c(OC)c1 |  | inactive: -5.85% |
| CC(NC(=O)c1cccc(S(=O)(=O)N2CCN(Cc3ccccc3)CC2)c1)c1ccc(Br)cc1 (configuration not stated) |  | inactive: 2.81% |
| COc1ccc(/C=N/Nc2nc(=O)[nH]nc2C)cc1[N+](=O)[O-] | inconclusive: 1.78 µM [quencher, side channel, partial curve] |  |
| Cc1cc(C)c(S(=O)(=O)/N=C2\C=C(NS(=O)(=O)c3ccccc3)C(=O)c3ccccc32)c(C)c1 |  | inactive: 11.7% |
| c1ccc(CN2CCC(N3CCC(N4CCCCCC4)CC3)CC2)cc1 |  | inactive: 0.621% |
| O=[N+]([O-])c1cc(C(F)(F)F)ccc1Sc1ccccn1 | inconclusive: 25.1 µM [quencher, side channel, partial curve] |  |
| Cc1cc(C)c2c(N)c(C(=O)NC3CCCC3)sc2n1 | inconclusive: 31.6 µM [quencher, side channel, single point] |  |
| Cc1ccc2c(c1)sc[n+]2Cc1ccccc1 |  | inactive: 8.6% |
| CC(C)(C)C(=O)C(Oc1cccc2nonc12)n1cncn1 (configuration not stated) | inconclusive: 22.4 µM [quencher, side channel, single point] |  |
| O=C(Oc1nsnc1N1CCOCC1)N1CCOCC1 |  | inactive: 1.59% |
| NC(=S)N/N=C/c1ccccc1[N+](=O)[O-] | inconclusive: 14.1 µM [quencher, side channel, partial curve] |  |

| Compound | Potency | activity change, negative = inhibition |
| --- | --- | --- |
| Brc1ccc(CN2CCN(c3ccccn3)CC2)s1 |  | inactive: -11.2% |
| O=C(NC12CC3CC(CC(C3)C1)C2)C1CC(=O)N(c2ccccc2)C1 (configuration not stated) | inconclusive: 0.794 µM [quencher, side channel, full curve, poor fit] |  |
| CCCN1CCC(=O)N([C@H](CSc2ccccc2)c2ccccc2)CC1 |  | inactive: -14.6% |
| COc1cc(C(=O)Nc2ccc(N(C)C)cc2)c([N+](=O)[O-])cc1OC | inconclusive: 6.31 µM [quencher, side channel, partial curve] |  |
| COc1ccc(-n2c3nc4ccccc4nc3c3c(=N)oc(C)nc32)cc1 | inconclusive: 11.2 µM [quencher, side channel, partial curve] |  |
| COc1ccc(C(=O)OCC(=O)Nc2ccc(Cl)c(C(F)(F)F)c2)c(OC)c1OC |  | inactive: -3.03% |
| Cc1cccn2c(=O)c3cc(C#N)c(=NC(=O)c4ccncc4)n(CCCOC(C)C)c3nc12 | inconclusive: 2 µM [quencher, side channel, full curve] |  |
| CCOC(=O)/C=C(\C)Sc1cc(=O)oc2ccccc12 | inconclusive: 3.98 µM [quencher, side channel, partial curve] |  |
| Cc1cccc(NC(=O)c2cc([N+](=O)[O-])ccc2N2CCCCC2)n1 | inconclusive: 7.08 µM [quencher, side channel, single point] |  |
| O=C(CCS(=O)(=O)c1cccc2nonc12)N1CCN(c2ccc(F)cc2)CC1 | inconclusive: 7.94 µM [quencher, side channel, full curve] |  |
| CCN1C(=O)c2cccc3c(NC(=O)c4ccccc4)ccc1c23 | inconclusive: 3.16 µM [quencher, side channel, full curve] |  |
| Cc1nn(C)c(Oc2ccccc2)c1CCNS(=O)(=O)c1ccc(F)cc1 | inconclusive: 3.98 µM [quencher, side channel, partial curve] |  |
| CC(C)(C)c1ccc(OCC(O)CN2CCN(C(=O)c3ccccc3)CC2)cc1 (configuration not stated) | inconclusive: 1.12 µM [quencher, side channel, full curve, poor fit] |  |
| O=[N+]([O-])c1cc(C(F)(F)F)ccc1SCC(O)CO (configuration not stated) | inconclusive: 7.94 µM [quencher, side channel, full curve] |  |
| COc1ccc(C)cc1NC(=O)c1cc2c(CO)cnc(C)c2oc1=N | inconclusive: 3.16 µM [quencher, side channel, full curve] |  |
| Cc1ccc(S(=O)(=O)/N=C2/NC(=O)/C(=C\c3cc(Br)cc(Br)c3O)S2)cc1 |  | inactive: 16.5% |
| O=C1Nc2cc(C(=O)NCCCN3CCCC3)ccc2S/C1=C\c1ccccc1 | inconclusive: 11.2 µM [quencher, side channel, partial curve] |  |
| O=C(NC(NC(=S)N1CCOCC1)C(Cl)(Cl)Cl)c1ccc(Cl)cc1 (configuration not stated) | inconclusive: 0.316 µM [fluorescent, side channel, full curve] |  |
| CCC(C)NC(C(=O)Nc1ccc(Cl)c([N+](=O)[O-])c1)c1ccccc1 (configuration not stated) | inconclusive: 17.8 µM [quencher, side channel, partial curve] |  |
| COc1ccc(NC(=O)CC(C)c2ccccc2)c([N+](=O)[O-])c1 (configuration not stated) | inconclusive: 10 µM [quencher, side channel, partial curve] |  |
| O=C(Nc1ccc2oc(-c3ccncc3)nc2c1)c1c(F)c(F)c(F)c(F)c1F |  | inactive: 4.92% |

| Compound | Potency | activity change, negative = inhibition |
| --- | --- | --- |
| O=C(N/N=C1\CCCc2c1[nH]c1ccc(Cl)cc21)c1ccncc1 |  | inactive: 7.02% |
| C/C(=N\Nc1nc(N)cc(Cl)n1)c1cccc(N)c1 | inconclusive: 7.94 µM [quencher, side channel, full curve, poor fit] |  |
| COC(=O)c1cnc(NNC(=O)c2ccc([N+](=O)[O-])cc2)nc1C(F)(F)F | inconclusive: 20 µM [quencher, side channel, partial curve] |  |
| O=[N+]([O-])c1ccc(CN2CCOCCOCCN(Cc3ccc([N+](=O)[O-])cc3)CCOCC2)cc1 | inconclusive: 17.8 µM [quencher, side channel, partial curve] |  |
| O=C(CCC1CCCN(C(=O)c2ccc3cc[nH]c3c2)C1)NCc1ccc(F)c(F)c1 (configuration not stated) |  | inactive: -11.4% |
| CCOC(=O)c1c(NC(=O)CSc2ncn[nH]2)sc(C(C)=O)c1C | inconclusive: 31.6 µM [quencher, side channel, single point] |  |
| CCCN1C(=O)/C(=C/c2ccc(N3CCOCC3)cc2)NC1=S | inconclusive: 12.6 µM [quencher, side channel, partial curve] |  |
| CCCCN(CC)CCCNC(=O)c1cc2cc3ccc(C)cc3nc2o1 | inconclusive: 3.98 µM [quencher, side channel, full curve] |  |
| CCc1cc2cc(C(=O)Nc3ccc(C)cc3)sc2s1 | inconclusive: 15.8 µM [fluorescent, side channel, single point] |  |
| CCOC(=O)c1sc(C)c(C(N)=O)c1NC1=NCCCCC1 | inconclusive: 14.1 µM [quencher, side channel, partial curve] |  |
| O=C(CSc1nnc2ccc(-c3ccccc3)nn12)NCC1CCCO1 (configuration not stated) | inconclusive: 22.4 µM [quencher, side channel, partial curve] |  |
| O=C(c1ccc(Cl)c([N+](=O)[O-])c1)N1CCN(c2ccccn2)CC1 |  | inactive: 34.4% |
| CSc1ncc(Cl)c(C(=O)Nc2ccc(S(=O)(=O)N3CCOCC3)cc2)n1 | inconclusive: 20 µM [quencher, side channel, partial curve, poor fit] |  |
| Cc1cccc(C)c1NC(=O)Nc1ccc(S(N)(=O)=O)cc1 | inconclusive: 50.1 µM [inhibitor, single point] |  |
| COc1cc(SC)ccc1C(=O)NCc1ccccc1 | inconclusive: 0.316 µM [fluorescent, side channel, full curve] |  |
| Cc1ccsc1/C=N/NC(=O)C1CC(=O)N(c2ccccc2)C1 (configuration not stated) | inconclusive: 0.158 µM [quencher, side channel, full curve, poor fit] |  |
| COc1cc(C2CC(=O)Oc3c(C(CCN4CCCC(C)C4)c4ccc(N(C)C)cc4)c(OC)cc(OC)c32)cc(OC)c1OC (configuration not stated) |  | inactive: -6.62% |
| O=C(CCS(=O)(=O)c1cccc2nsnc12)NC1CCCCCC1 | inconclusive: 14.1 µM [quencher, side channel, partial curve] |  |
| CCCc1cc(=O)[nH]c(SCC(=O)Nc2ncc(S(=O)(=O)c3ccc([N+](=O)[O-])cc3)s2)n1 | inconclusive: 28.2 µM [quencher, side channel, partial curve] |  |
| CN1CCN(C(=O)CCN2C(=O)/C(=C/c3ccccc3Cl)SC2=S)CC1 | inconclusive: 12.6 µM [quencher, side channel, partial curve] |  |
